Test results from the supplement of paper PMC4604168 (melanoma cell lines).
The other results are listed elsewhere or left out. Repeats are few or missing, and single values can be far off.

How the values were obtained:
Test in all cases: cell count relative to DMSO control; melanoma cells; higher = more viable cells
Conditions in all cases: library dose: standard library concentration; 72 h
[1] = system: SkMel28
[2] = system: SkMel2
[3] = system: SkMel30
[4] = system: SkMel5
[5] = system: UACC257
[6] = system: UACC62
[7] = system: WM115
[8] = system: WM1716
[9] = system: WM1745
[10] = system: WM3526
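Further: cells treated in 1,536-well plates, then fixed and DAPI-stained, with nuclei counted from automated high-throughput microscope images.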

| Compound | cell count [1] [%] | cell count [2] [%] | cell count [3] [%] | cell count [4] [%] | cell count [5] [%] | cell count [6] [%] | cell count [7] [%] | cell count [8] [%] | cell count [9] [%] | cell count [10] [%] |
| --- | --- | --- | --- | --- | --- | --- | --- | --- | --- | --- |
| C[As](C)SC[C@H](NC(=O)CC[C@H](N)C(=O)O)C(=O)NCC(=O)O [Darinaparsin] + Cn1c(Nc2ccc(C(F)(F)F)cc2)nc2cc(Oc3ccnc(-c4ncc(C(F)(F)F)[nH]4)c3)ccc21 [CHIR265] (first compound 2 µM, partner dose 0.4 µM) | 44.6 | 46.3 | 66.4 | 34.6 | 76 | 58.6 | 30.1 | 57.1 | 60.7 | 30.6 |
| C[C@]12O[C@H](C[C@]1(O)CO)n1c3ccccc3c3c4c(c5c6ccccc6n2c5c31)CNC4=O [Lestaurtinib] + C=CCn1c(=O)c2cnc(Nc3ccc(N4CCN(C)CC4)cc3)nc2n1-c1cccc(C(C)(C)O)n1 [MK1775] (first compound 0.02 µM, partner dose 0.1 µM) | 47.2 | 70 | 62.6 | 40.6 | 82.9 | 70.2 | 50.5 | 66.3 | 40 | 57.2 |
| C[As](C)SC[C@H](NC(=O)CC[C@H](N)C(=O)O)C(=O)NCC(=O)O [Darinaparsin] + Cc1cc([N+](=O)[O-])ccc1NS(=O)(=O)c1cc(Cl)ccc1Cl [FH535] (first compound 2 µM, partner dose 5 µM) | 63.4 | 91.3 | 76.2 | 62.9 | 71.1 | 80.5 | 88.5 | 52.5 | 101 | 83.1 |
| C[As](C)SC[C@H](NC(=O)CC[C@H](N)C(=O)O)C(=O)NCC(=O)O [Darinaparsin] + NCC(=O)Nc1ccc(-n2nc(C(F)(F)F)cc2-c2ccc3c(ccc4ccccc43)c2)cc1 [OSU03012] (first compound 2 µM, partner dose 5 µM) | 21 | 29.5 | 19.7 | 31.6 | 74.2 | 36.6 | 72 | 64 | 56.8 | 38.2 |
| C[As](C)SC[C@H](NC(=O)CC[C@H](N)C(=O)O)C(=O)NCC(=O)O [Darinaparsin] + C[C@]1(c2nc3c(C(N)=O)cccc3[nH]2)CCCN1 [Veliparib] (first compound 2 µM, partner dose 7 µM) | 72.7 | 71.7 | 76.4 | 36.3 | 74.6 | 80.9 | 60.9 | 58.1 | 81.4 | 65.4 |
| C[C@]12O[C@H](C[C@]1(O)CO)n1c3ccccc3c3c4c(c5c6ccccc6n2c5c31)CNC4=O [Lestaurtinib] + Cc1ccc(NC(=O)c2cccc(N(C)C)c2)cc1NC(=O)c1ccc(O)cc1 [ZM336372] (first compound 0.02 µM, partner dose 10 µM) | 59.9 | 59.7 | 78.4 | 60.4 | 69.2 | 82.5 | 72.3 | 117 | 79.8 | 63.3 |
| C[C@]12O[C@H](C[C@]1(O)CO)n1c3ccccc3c3c4c(c5c6ccccc6n2c5c31)CNC4=O [Lestaurtinib] + CN(c1ncccc1CNc1nc(Nc2ccc3c(c2)CC(=O)N3)ncc1C(F)(F)F)S(C)(=O)=O [PF562271] (first compound 0.02 µM, partner dose 0.4 µM) | 72.4 | 73.1 | 66.6 | 58.9 | 93.2 | 80 | 52.8 | 81.4 | 67.4 | 71.9 |
| C[As](C)SC[C@H](NC(=O)CC[C@H](N)C(=O)O)C(=O)NCC(=O)O [Darinaparsin] + COc1cc(Nc2ncc(F)c(Nc3ccc4c(n3)NC(=O)C(C)(C)O4)n2)cc(OC)c1OC [Tamatinib] (first compound 2 µM, partner dose 2 µM) | 87.8 | 85 | 90.3 | 56.5 | 78.5 | 98.1 | 77.6 | 74.2 | 41.3 | 70.9 |
| C[As](C)SC[C@H](NC(=O)CC[C@H](N)C(=O)O)C(=O)NCC(=O)O [Darinaparsin] + CC1(C)NC(=O)N(c2ccc([N+](=O)[O-])c(C(F)(F)F)c2)C1=O [nilutamide] (first compound 2 µM, partner dose 5 µM) | 65.9 | 76.8 | 99.8 | 51.7 | 82.5 | 94.7 | 63.4 | 64.5 | 91.9 | 82.7 |
| C[C@]12O[C@H](C[C@]1(O)CO)n1c3ccccc3c3c4c(c5c6ccccc6n2c5c31)CNC4=O [Lestaurtinib] + CCN(CC)CCNC(=O)c1c(C)[nH]c(/C=C2\C(=O)Nc3ccc(F)cc32)c1C [sunitinib] (first compound 0.02 µM, partner dose 2 µM) | 67.3 | 50.3 | 53 | 34 | 85.8 | 49 | 59 | 94.9 | 49.4 | 39.7 |
| N.N.[Cl][Pt][Cl] [cisplatin] + NC(=O)Nc1cc(-c2cccc(F)c2)sc1C(=O)N[C@H]1CCCNC1 [AZD7762] (first compound 8 µM, partner dose 0.1 µM) | 36 | 80.1 | 79.8 | 64.1 | 87.5 | 61.6 | 49 | 57.8 | 63.3 | 49.2 |
| Cn1cc(C2=C(c3cn(C4CCN(Cc5ccccn5)CC4)c4ccccc34)C(=O)NC2=O)c2ccccc21 [Enzastaurin] + C[C@@H]1CCN(C(=O)CC#N)C[C@@H]1N(C)c1ncnc2[nH]ccc12 [CP690550] (first compound 4 µM, partner dose 5 µM) | 120 | 78.4 | 110 | 108 | 113 | 104 | 148 | 81.8 | 66.8 | 90.7 |
| C[As](C)SC[C@H](NC(=O)CC[C@H](N)C(=O)O)C(=O)NCC(=O)O [Darinaparsin] + O=C(CCCCCCC(=O)Nc1ccccc1)NO [vorinostat] (first compound 2 µM, partner dose 0.4 µM) | 43.4 | 88.1 | 95.5 | 58.5 | 57.9 | 77 | 67 | 72.1 | 80.9 | 60.2 |
| Cn1cc(C2=C(c3cn(C4CCN(Cc5ccccn5)CC4)c4ccccc34)C(=O)NC2=O)c2ccccc21 [Enzastaurin] + COCC[n+]1c2c(n(Cc3cnccn3)c1C)C(=O)c1ccccc1C2=O [YM155] (first compound 4 µM, partner dose 0.002 µM) | 48.9 | 33.7 | 47.7 | 25.4 | 25.1 | 54.2 | 75 | 69.9 | 61.7 | 26.6 |
| N.N.[Cl][Pt][Cl] [cisplatin] + CN1CCN(c2ccc3nc(-c4c(N)c5c(F)cccc5[nH]c4=O)[nH]c3c2)CC1 [Dovitinib] (first compound 8 µM, partner dose 0.5 µM) | 35.1 | 71.2 | 88.6 | 69.5 | 73.2 | 69.7 | 56.5 | 68.5 | 55.2 | 73 |
| C[C@]12O[C@H](C[C@]1(O)CO)n1c3ccccc3c3c4c(c5c6ccccc6n2c5c31)CNC4=O [Lestaurtinib] + Cn1nnc2c(C(N)=O)ncn2c1=O [temozolomide] (first compound 0.02 µM, partner dose 10 µM) | 29.1 | 86 | 64.1 | 58.3 | 79.8 | 48.7 | 64.1 | 61.8 | 61.3 | 68.1 |
| N.N.[Cl][Pt][Cl] [cisplatin] + C#Cc1cccc(Nc2ncnc3cc(OCCOC)c(OCCOC)cc23)c1 [erlotinib] (first compound 8 µM, partner dose 4 µM) | 111 | 126 | 84 | 81.6 | 83.5 | 68 | 77.6 | 102 | 71.8 | 103 |
| Cn1cc(C2=C(c3cn(C4CCN(Cc5ccccn5)CC4)c4ccccc34)C(=O)NC2=O)c2ccccc21 [Enzastaurin] + O=C1NC(=O)/C(=C/c2ccc(-c3ccc(F)cc3O)o2)S1 [AS252424] (first compound 4 µM, partner dose 5 µM) | 70.6 | 53 | 92.4 | 83.1 | 97.3 | 55.7 | 98.8 | 63.9 | – | 85.2 |
| Cn1cc(C2=C(c3cn(C4CCN(Cc5ccccn5)CC4)c4ccccc34)C(=O)NC2=O)c2ccccc21 [Enzastaurin] + COc1ccc(COc2ccc(Cc3cnc(N)nc3N)cc2OC)cc1 [GW2580] (first compound 4 µM, partner dose 5 µM) | 78 | 80.9 | 105 | 72.4 | 82.4 | 77.8 | 118 | 68.1 | – | 91.1 |
| Cn1cc(C2=C(c3cn(C4CCN(Cc5ccccn5)CC4)c4ccccc34)C(=O)NC2=O)c2ccccc21 [Enzastaurin] + CCN(CC)CCCCNc1ncc2cc(-c3cc(OC)cc(OC)c3)c(NC(=O)NC(C)(C)C)nc2n1 [PD173074] (first compound 4 µM, partner dose 0.5 µM) | 101 | 82.3 | 92.3 | 99.8 | 111 | 85.8 | 120 | 74.1 | – | 96.1 |
| C[C@]12O[C@H](C[C@]1(O)CO)n1c3ccccc3c3c4c(c5c6ccccc6n2c5c31)CNC4=O [Lestaurtinib] + COCC[n+]1c2c(n(Cc3cnccn3)c1C)C(=O)c1ccccc1C2=O [YM155] (first compound 0.02 µM, partner dose 0.002 µM) | 46.5 | 58.5 | 63.5 | 49.2 | 32 | 63.8 | 58 | 61.5 | 84.1 | 43.9 |
| Cn1cc(C2=C(c3cn(C4CCN(Cc5ccccn5)CC4)c4ccccc34)C(=O)NC2=O)c2ccccc21 [Enzastaurin] + CCCCCCCCCCCC1=C(O)C(=O)C=C(O)C1=O [Embelin] (first compound 4 µM, partner dose 6 µM) | 112 | 79.9 | 117 | 86.8 | 84.1 | 93.5 | 89.9 | 65.7 | – | 88.9 |
